Source: PubChem BioAssay AID504706 (National Center for Advancing Translational Sciences (NCATS), 2011)
Among all 320,000 compounds or so, about 200 (0.062%) were called active. This list was built around the results that the source calls inconclusive (neither active nor inactive); the mix of calls is not that of the screen. The call rests on the fitted dose curve; in most records, active means well fitted activation curve with a large enough effect; inconclusive means small, poorly fitted or top-dose-only effect; inactive means no such curve, though single readings can be large or run the other way. Potencies of inconclusive entries are left out as doubtful fits.

experiment: qHTS assay for re-activators of p53 using a Luc reporter; conditions: H1299 p53-A138V BP100-luciferase reporter, luminescence, 24 h; series mostly up to 92.2 µM; activity change, positive = activation: at the top concentration; further: nearly all actives have a fitted effect of over 45% in size; on activity change, positive = activation: % of control where 0% means no effect
Method in brief: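 p53-null H1299 cells stably carrying temperature-sensitive p53-A138V and a BP100-luciferase reporter were pinned with compounds (4-point, 1:5 series) and held 24 hrs at 37 deg C. Luminescence was read 10 min after detection reagent.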
Potency means the concentration at half of the fitted maximal effect; tags describe the fitted curve by direction and shape.

Row | Compound | activity change, positive = activation | Potency
1 | Cc1cccc(N2CCN(S(=O)(=O)c3ccc(-c4ccc(=O)[nH]n4)o3)CC2)c1C | inactive: -19.9% | 
2 | CCCCc1ccc(NC(=S)NCc2ccc(OC)cc2)cc1 |  | inconclusive [activator, single point]
3 | O=C(NC1CCCCCC1)c1cc2ccccc2oc1=O |  | inconclusive [activator, partial curve, poor fit]
4 | CCOCCn1c(SCc2cccc(C)c2)nc2c1c(=O)[nH]c(=O)n2C | inactive: -2.73% | 
5 | CN(C(=O)c1cccnc1)c1nnc(-c2ccccn2)s1 |  | inconclusive [activator, partial curve, poor fit]
6 | COc1ccc(-n2nc3c(N4CCC(C(=O)NCc5ccccc5C)CC4)nnc(C)c3c2C)cc1 |  | inconclusive [activator, single point]
7 | Cc1cc2ncc(-c3ccccc3)nc2cc1C |  | inconclusive [activator, partial curve, poor fit]
8 | O=C(NCc1nc2ccccc2[nH]1)C1=C[C@@H](c2ccc(Br)cc2)C[C@@H](OCc2ccc(CO)cc2)O1 | inactive: 6.29% | 
9 | COc1ccc2c(c1)CC/C(=C\c1ccc(C)o1)C2=O |  | inconclusive [activator, full curve, poor fit]
10 | CCCS(=O)(=O)N1CCN(S(=O)(=O)c2ccc(F)cc2)CC1 |  | inconclusive [activator, full curve, poor fit]
11 | COc1ccc(NC(=O)CCC(=O)N/N=C/c2ccc([N+](=O)[O-])s2)cc1 |  | inconclusive [activator, single point]
12 | Cc1ccc(NC2=C(Cl)C(=O)c3ccccc3C2=O)cc1 |  | active: 5.01 µM
13 | O=C(CSc1nnc(NC(=O)c2ccccc2Cl)s1)NC1CC1 |  | inconclusive [activator, full curve, poor fit]
14 | COc1cccc(NC(=O)COC(=O)c2ccco2)c1 |  | inconclusive [activator, single point]
15 | Clc1cnc(N/N=C/c2cccs2)c(Cl)c1 |  | inconclusive [activator, full curve, poor fit]
16 | COc1ccc(NC(=O)CCS(=O)(=O)c2ccccc2)c(OC)c1 |  | inconclusive [activator, partial curve, poor fit]
17 | COc1ccc(-n2nc([N+](=O)[O-])c(=NCc3ccco3)n2O)cc1 |  | inconclusive [activator, partial curve, poor fit]
18 | Cc1nc(=S)n(-c2ccccc2)[nH]1 | inactive: -9% | 
19 | CCN(C(=O)COC(=O)/C(C#N)=C/c1ccc(N(C)C)cc1)C1CCS(=O)(=O)C1 (stereo unspecified) |  | inconclusive [activator, partial curve, poor fit]
20 | COc1ccc(/C=N/NC(=O)Nc2cccc3nsnc23)cc1 | inactive: 12.7% | 
21 | Cc1cc(C(=O)C(C)Cl)c(C)n1Cc1ccco1 (stereo unspecified) |  | inconclusive [activator, single point]
22 | O=C(OCN1C(=O)C(=O)c2ccccc21)c1ccc(Cl)cc1 |  | inconclusive [activator, single point]

Row | Compound | activity change, positive = activation | Potency
23 | Cc1ccc(/C=N/NC(=S)N2CCOCC2)cc1 |  | inconclusive [activator, partial curve, poor fit]
24 | O=C1N/C(=C/c2cccn2-c2ccccc2)C(=O)N1c1cccc(Cl)c1 |  | inconclusive [activator, single point]
25 | CC1=NN(c2ccccc2)C(=O)/C1=C\C=C\c1ccccc1 | inactive: -12.2% | 
26 | CC(=O)Nc1ccccc1OCc1nnc(-c2ccccc2Cl)o1 |  | inconclusive [activator, single point]
27 | COc1ccc2ccccc2c1CN1CCSCC1 |  | inconclusive [activator, partial curve, poor fit]
28 | CCCCNc1ncnc2c1cnn2Cc1ccc(Cl)cc1 | inactive: -3.39% | 
29 | COc1ccc(NC(=O)/C=C/c2ccc(F)cc2)cn1 |  | inconclusive [activator, partial curve, poor fit]
30 | CC(=O)/C=C(/C)NC(Cc1c[nH]c2ccccc12)C(=O)O (stereo unspecified) |  | inconclusive [activator, single point]
31 | c1ccc(C2=Nc3ccccc3OC2)cc1 |  | inconclusive [activator, single point]
32 | Cn1c(SCc2ccccc2Cl)nnc1-c1cnccn1 |  | inconclusive [activator, partial curve, poor fit]
33 | Cc1nc2ccc(NC(=S)NC(C)C)cc2nc1C |  | inconclusive [activator, single point]
34 | CCN(CC)CCn1c2ccccc2c2cnc(N)c(C#N)c21 |  | inconclusive [activator, partial curve, poor fit]
35 | COc1ccc2nc3c(cc2c1)c(NC(=O)C1CCCO1)nn3CC(C)C (stereo unspecified) |  | inconclusive [activator, partial curve, poor fit]
36 | c1ccc(-c2cc3n(c2)CCc2ccccc2-3)cc1 |  | inconclusive [activator, partial curve, poor fit]
37 | Cc1cccn2c(=O)c3cc(C(=O)NCCc4ccccc4)c(=N)n(Cc4ccco4)c3nc12 | inactive: 2.73% | 
38 | CCc1ccc(-c2nc(SCC(=O)N3CCOCC3)n[nH]2)cc1 | inactive: 6.77% | 
39 | Cc1ccc(S(=O)(=O)Oc2ccc(C)cc2/C=N/N=C2\NC(=O)C(C)S2)cc1 (stereo unspecified) |  | inconclusive [activator, partial curve, poor fit]
40 | Cc1ccccc1OCC(=O)Nc1ccccc1-c1ccccc1 |  | inconclusive [activator, full curve, poor fit]
41 | CCCC(CCC)=NNC(=O)c1ccccc1F |  | inconclusive [activator, partial curve, poor fit]
42 | Cc1nn(-c2nc3ccccc3s2)c(N)c1-c1ccc(Cl)cc1 |  | inconclusive [activator, partial curve, poor fit]
43 | Clc1ccc(OCc2nc(-c3ccncc3)no2)c(Br)c1 |  | inconclusive [activator, full curve, poor fit]
44 | CC(C)CNC(=O)/C=C/c1cccs1 |  | inconclusive [activator, partial curve, poor fit]

Row | Compound | activity change, positive = activation | Potency
45 | Brc1ccccc1-n1nnc(-c2ccnc3ccccc23)n1 | inactive: 6.69% | 
46 | N#CC1(NC(=O)CSc2nnc(Nc3ccccc3F)s2)CCCC1 |  | inconclusive [activator, partial curve, poor fit]
47 | COc1ccccc1N1CCN(C(=O)C2CCCN(S(=O)(=O)c3ccc4c(c3)CCCN4C(C)=O)C2)CC1 (stereo unspecified) | inactive: -4.3% | 
48 | Cc1ccc(-c2cc(C(=O)N/N=C/c3c(C)nn(C)c3C)c3ccccc3n2)cc1C |  | inconclusive [activator, partial curve, poor fit]
49 | Cn1nc(CC(=O)Nc2ccc(N3CCN(C(=O)OC(C)(C)C)CC3)cc2)c2ccccc2c1=O | inactive: -1.98% | 
50 | C=CCNC(=O)C1CC(=O)N(c2ccc(OCc3ccc(F)cc3)cc2)C1 (stereo unspecified) |  | inconclusive [activator, single point]
51 | Cc1ccc(CN2CC(C(=O)N3CCN(S(=O)(=O)c4ccc(C(C)C)cc4)CC3)CC2=O)cc1 (stereo unspecified) | inactive: -10.2% | 
52 | Cc1ccc2c(c1)c1cccc3c1n2CCN3CCC(N)=O |  | inconclusive [activator, partial curve, poor fit]
53 | O=C(NNc1nc2ccccc2s1)Nc1ccccc1 |  | inconclusive [activator, partial curve, poor fit]
54 | Clc1ccc(OCc2nnc(-c3ccccc3Br)o2)c(Cl)c1 |  | inconclusive [activator, partial curve, poor fit]
55 | O=C(NCC(=O)N1CCCC1)c1cccs1 |  | inconclusive [activator, single point]
56 | Cc1ccc(C2CC(c3ccccc3)=NN2c2ccccc2)o1 (stereo unspecified) |  | inconclusive [activator, partial curve, poor fit]
57 | Cc1cc(C(=O)N2CCc3ccccc32)c2cc(F)ccc2n1 |  | inconclusive [activator, partial curve, poor fit]
58 | CCCCC(=O)Nc1nc2ccc(C(=O)OC)cc2s1 |  | inconclusive [activator, full curve, poor fit]
59 | CC(C)(C)c1ccc(CNc2ccc([N+](=O)[O-])cn2)cc1 |  | inconclusive [activator, full curve, poor fit]
60 | CC1CCN(Cc2nc(-c3ccccc3)no2)CC1 |  | inconclusive [activator, partial curve, poor fit]
61 | O=C(CN1CCOCCOCCOCCOCC1)Nc1ccccc1 |  | inconclusive [activator, partial curve, poor fit]
62 | CCN(CC)c1nc2cc(OC)ccc2cc1C#N | inactive: -3.95% | 
63 | CC(C)(C)CC(=O)Nc1nnc(-c2cccs2)s1 |  | inconclusive [activator, full curve, poor fit]
64 | Cc1cc(N2CCCCC2)nc(SCC(=O)c2ccccc2)n1 |  | inconclusive [activator, partial curve, poor fit]
65 | O=C(CNC(=O)c1ccccc1Cl)N/N=C/c1ccc([N+](=O)[O-])s1 |  | inconclusive [activator, partial curve, poor fit]
66 | CN(c1ccccc1)c1nc(N)c([N+](=O)[O-])c(N2CCCC2)n1 |  | inconclusive [activator, partial curve, poor fit]
